Source: the supplement of paper PMC8821664
Structures can show the parent of a compound that is named as a salt. This is one part of the list. Single values are uncertain, as repeats are few or missing.
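Note: monoclonal Beas-2B line stably carrying CMV promoter-driven AQP5-HiBiT, 5,000 cells per well in 384-well plates, lytic HiBiT plus LgBiT NanoLuc luminescence, FDA-approved drug library screen.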

Each compound was assayed on Beas-2B AQP5-HiBiT reporter cells (assay: AQP5-HiBiT luminescence relative to vehicle (ratio to vehicle); higher = higher AQP5-HiBiT protein abundance). Details: 10 µM; 18 h.
`CN(C)CCCN1c2ccccc2Sc2ccccc21` [Promazine hydrochloride] showed an AQP5-HiBiT luminescence of 1.09. In the case of `COc1cc(N)c(Cl)cc1C(=O)NC1CCN(CCCOc2ccc(F)cc2)CC1OC` (stereo not drawn) [Cisapride], the AQP5-HiBiT luminescence was 1.18. In the case of `Cc1nnc(C(C)C)n1C1C[C@H]2CC[C@@H](C1)N2CC[C@H](NC(=O)C1CCC(F)(F)CC1)c1ccccc1` (stereo in doubt) [Maraviroc], the AQP5-HiBiT luminescence was 0.819. `CCN(Cc1ccncc1)C(=O)C(CO)c1ccccc1` (stereo not drawn) [Tropicamide] gave an AQP5-HiBiT luminescence of 0.584. With `Cc1cccc(Nc2ccccc2C(=O)O)c1C` [Mefenamic acid] the AQP5-HiBiT luminescence was 1.46. For `O=C[C@H](O)[C@@H](O)[C@H](O)CO` (racemic) [DL-Xylose], the AQP5-HiBiT luminescence was 0.769. Work on `C[C@@H](NCCCc1cccc(C(F)(F)F)c1)c1cccc2ccccc12` [Cinacalcet hydrochloride] yielded an AQP5-HiBiT luminescence of 0.756. `Cc1c(C)c2c(c(C)c1O)CC[C@@](C)(CCC[C@H](C)CCC[C@H](C)CCCC(C)C)O2` [Vitamin E] gave an AQP5-HiBiT luminescence of 0.952. `NCCC(O)(P(=O)(O)O)P(=O)(O)O` [Pamidronate disodium salt] gave an AQP5-HiBiT luminescence of 0.907. `COC1=CC(=O)C[C@@H](C)[C@]12Oc1c(Cl)c(OC)cc(OC)c1C2=O` [Griseofulvin] showed an AQP5-HiBiT luminescence of 1.08. In the case of `C#CCN[C@@H]1CCc2ccccc21` [Rasagiline], the AQP5-HiBiT luminescence was 1.11. In the case of `Nc1ncn([C@H]2C[C@H](O)[C@@H](CO)O2)c(=O)n1` [Dacogen], the AQP5-HiBiT luminescence was 0.981. In the case of `CCCCCCCCCC(=O)N[C@@H](Cc1c[nH]c2ccccc12)C(=O)N[C@H](CC(N)=O)C(=O)N[C@@H](CC(=O)O)C(=O)N[C@@H]1C(=O)NCC(=O)N[C@@H](CCCN)C(=O)N[C@@H](CC(=O)O)C(=O)N[C@H](C)C(=O)N[C@@H](CC(=O)O)C(=O)NCC(=O)N[C@H](CO)C(=O)N[C@@H]([C@H](C)CC(=O)O)C(=O)N[C@@H](CC(=O)c2ccccc2N)C(=O)O[C@@H]1C` [Daptomycin], the AQP5-HiBiT luminescence was 1.4.
